Among all 420,000 compounds or so, about 50,000 (12%) were called active. The inconclusive results got no clear call from the source; some entries with a clear call stand among them for comparison. The call rests on the fitted dose curve; in most records, active means well fitted inhibition curve with a large enough effect; inconclusive means small, poorly fitted or top-dose-only effect; inactive means flat fitted curve, though single readings scatter. No potency is given beside an inconclusive call; the fits are too rough.
Test: qHTS for Inhibitors of human tyrosyl-DNA phosphodiesterase 1 (TDP1): qHTS in cells in presence of CPT; further: nearly all actives have a fitted effect of over 55% in size
Conditions: chicken DT40 Tdp1-/-;hTDP1 cells + 20 nM CPT, ATP luminescence, 48 h; activity change, negative = growth inhibition: at 46.2 µM (top of the series)
How it was run: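 Chicken DT40 Tdp1-/- cells complemented with human TDP1, 400 cells/well, exposed to compounds plus 20 nM camptothecin for at least 48 h at 37 C; viability read as ATP content by CellTiter-Glo luminescence.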
On the % scale 0 is the no-effect control and ±100 the full control effect; potency means the concentration at half of the fitted maximal effect; tags describe the fitted curve by direction and shape.

| Structure (SMILES) | Potency | activity change, negative = growth inhibition |
| --- | --- | --- |
| CC(=O)Nc1nc2c(C)c(Cl)ccc2s1 | inactive | – |
| Cc1ccc(-c2nc3c4ccccc4ccn3c2Cc2ccccc2)cc1 | inconclusive [inhibitor, single point] | – |
| CCCNC(=O)C1(C)CCCN(C(=O)c2cccc(C#N)c2)C1 (stereo not given) | inactive | – |
| COc1ccc(C(=O)O/N=C(\N)Cc2ccc([N+](=O)[O-])cc2)c(OC)c1 | active: 1.3 µM | – |
| CC(C)(C)OC(=O)[C@H](Cc1ccccc1)NC(=O)c1[nH]cnc1C(=O)N[C@@H](Cc1ccccc1)C(=O)OCc1ccccc1 | active: 16.4 µM | – |
| Cc1cnc(-n2ncc(C(=O)N[C@H]3CCCCNC3=O)c2C2CC2)nc1-c1cccs1 | inactive | – |
| CC1(C)CC2CC(C)(CN2Cc2c(O)ccc3ccccc23)C1 (stereo not given) | inconclusive [inhibitor, single point] | – |
| O=C1NCC(c2ccccc2)C1C(=O)N/N=C\c1ccc(-c2ccc(Cl)c(Cl)c2)o1 (stereo not given) | inconclusive [inhibitor, single point] | – |
| O=C1CC(NS(=O)(=O)c2ccc([N+](=O)[O-])cc2)CN1c1ccc(Cl)cc1 (stereo not given) | inconclusive [inhibitor, single point] | – |
| O=C1C2CCCCN2C(=O)N1CCN1CCN(c2cccc(Cl)c2)CC1 (stereo not given) | inactive | – |
| Cc1ccccc1CNC(=O)CN1C(=O)CSc2ccc(S(=O)(=O)N(C)C)cc21 | inconclusive [inhibitor, single point] | – |
| O=C(CN1C(=O)C2C3C=CC(C3)C2C1=O)OCC(=O)c1ccc([N+](=O)[O-])cc1 (stereo not given) | inconclusive [inhibitor, single point] | – |
| COc1ccc(CC(=O)Nc2ccc(-c3noc(-c4ccccc4OC)n3)cc2)cc1 | inconclusive [inhibitor, single point] | – |
| CNc1nc(OCCNC(=O)Nc2ccccc2)nc(N2CCOCC2)n1 | inactive | – |
| Cc1cc(Nc2cccc(Cl)c2Cl)n2ncnc2n1 | inactive | – |
| CCN(Cc1ccc2c(c1)OCO2)C(=O)/C=C/c1cccc(Br)c1 | inactive | – |
| O=C(NCc1ccncc1)C(=O)NCC(c1ccco1)N1CCN(c2ccccc2F)CC1 (stereo not given) | inactive | – |
| CCCCCCSc1cc(-c2nc3cnccn3c2NCc2ccccc2)ccc1OC | inconclusive [inhibitor, single point] | – |
| CCCn1c(=O)c(C(=O)NCc2ccccn2)c(O)c2ccccc21 | inconclusive [inhibitor, single point] | – |
| CCOC(=O)C1=CC[C@@H](c2ccccc2)N(S(=O)(=O)c2ccc(C)cc2)[C@H]1/C=C/c1ccccc1 | active: 13 µM | – |
| Cc1ccc(C(=O)Nc2nc(COc3ccccc3)cs2)s1 | inconclusive [inhibitor, single point] | – |
| CC(=O)c1ccc(-c2nnc(CCC(=O)N3CCCC(C(=O)CC(C)C)C3)o2)s1 (stereo not given) | active: 13 µM | – |
| CC(=O)c1ccc(N2CCN(c3ncnc4c3nc3n4CCCC3)CC2)cc1 | inconclusive [inhibitor, single point] | – |
| CC(C)(C)c1ccc(CNc2cc(N3CCOCC3)ccc2[N+](=O)[O-])cc1 | inconclusive [inhibitor, single point] | – |

| Structure (SMILES) | Potency | activity change, negative = growth inhibition |
| --- | --- | --- |
| CC(C)(C)[C@H]1COC(=O)CCCC/C=C\C[C@H](CC(=O)NCCO)C(=O)N1 | inactive | – |
| Cc1ccc(CSc2oc(-c3cccs3)nc2S(=O)(=O)c2ccccc2)cc1 | inconclusive [inhibitor, single point] | – |
| CC1Oc2ccccc2C=C1/C=N\NC(=O)c1cccnc1 (stereo not given) | inactive | – |
| COc1ccccc1NS(=O)(=O)c1cccc(C(=O)N/N=C/c2ccc([N+](=O)[O-])o2)c1 | active: 3.66 µM | – |
| CCOC(=O)c1[nH]c2ccccc2c1NC(=O)c1ccc(S(=O)(=O)N2CCCCC2)cc1 | inconclusive [inhibitor, single point] | – |
| CCC1CCCCN1C(=O)CSc1nnc(-c2ccc3c(c2)OCCO3)o1 (stereo not given) | inactive | – |
| O=c1c2c(nc3c(-c4ccccc4)c[nH]n13)CCC2 | inconclusive [inhibitor, single point] | – |
| COc1cccc(NC(=O)CNC(C)CCC(C)C)c1 (stereo not given) | inconclusive [inhibitor, partial curve] | – |
| CC(C)(C)c1ccc(COc2ccsc2C(=O)O)cc1 | inactive | – |
| COc1ccc(C2C(C#N)=C(N)N(Nc3ccccc3)C3=C2C(=O)CC(C)(C)C3)cc1C (stereo not given) | inactive | – |
| C=CCN(C(=O)COC(=O)c1cc[n+]([O-])cc1)c1nc(-c2ccccc2)cs1 | inconclusive [inhibitor, single point] | – |
| COc1ccccc1N1CCN(C(=O)Nc2ccc([N+](=O)[O-])cc2)CC1 | inconclusive [inhibitor, single point] | – |
| O=C(Nc1cccc(Cl)c1)c1cccnn1 | inactive | – |
| COC(=O)c1sccc1NC(=O)COc1ccccc1Cl | inactive | – |
| CC(C)(C)c1ccc(CS(=O)(=O)CC2(O)CCN(C(=O)c3cccc(C(F)(F)F)c3)CC2)cc1 | inconclusive [inhibitor, partial curve] | – |
| O=C(CSc1ncn[nH]1)c1cccc([N+](=O)[O-])c1 | inactive | – |
| CN(Cc1ccco1)C(=O)[C@H](Cc1ccccc1)NC(=O)CC[C@H]1O[C@@H](n2ccc(=O)[nH]c2=O)[C@H](O)[C@@H]1O | inactive | – |
| C#C[C@]1(O)CC[C@H]2[C@@H]3[C@H](C)CC4=C(CCC(=O)C4)[C@H]3CC[C@@]21C | inconclusive [inhibitor, single point] | – |
| COc1ccc(CCNC(=O)Cc2c(C)c3c(cc(C)c4c(C)c(C)oc43)oc2=O)cc1 | inactive | – |
| CCOC(=O)C1(CCCc2ccccc2)CCN(C(=O)c2cnn(CC)c2)CC1 | active: 25.9 µM | – |
| CCCOc1ccc(C(F)(F)F)cc1NC(=O)CCc1c(C)noc1C | inconclusive [inhibitor, single point] | – |
| O=C(Oc1ccc(-c2ccccc2)cc1)N1CCCCC1 | inconclusive [inhibitor, single point] | – |
| CCOC1=C2CN(S(=O)(=O)c3ccc(C)cc3)[C@H](c3ccccc3)C[C@@H]2N(S(=O)(=O)c2ccc(Br)cc2)[C@H](c2ccccc2)C1 | inconclusive [inhibitor, partial curve] | – |
| O=C(OCc1nnc(-c2ccccc2)o1)c1cc(=O)[nH]c2ccccc12 | inactive | – |

| Structure (SMILES) | Potency | activity change, negative = growth inhibition |
| --- | --- | --- |
| O=C(NCc1ccco1)C1CCCN(S(=O)(=O)c2ccc(-n3cnnn3)cc2)C1 (stereo not given) | inactive | – |
| CCC(C(=O)NCc1ccccc1)n1c(Cc2cc(F)cc(F)c2)nc2ccccc21 (stereo not given) | inconclusive [inhibitor, single point] | – |
| CCOC(=O)c1c(C)nc(C)c(C(=O)OCC)c1-c1ccc(O)c(OC)c1 | inconclusive [inhibitor, partial curve, poor fit] | – |
| CCCCNC(=O)c1cc2c(C)cc(C)cc2[nH]1 | inactive | – |
| Cc1ccc(C)c(NS(=O)(=O)c2cc(C(=O)NCc3ccccn3)ccc2C)c1 | inconclusive [inhibitor, single point] | – |
| COc1ccc(-c2nnn(CC(=O)NCCc3c[nH]c4ccccc34)n2)cc1OC | inconclusive [inhibitor, single point] | – |
| O=C(Nc1ccc2c(c1)OCCO2)C(c1cc2ccccc2o1)N1CCN(c2ccc(C(F)(F)F)cn2)CC1 (stereo not given) | inconclusive [inhibitor, single point] | – |
| Cc1ccc2ncc(C(=O)N3CCN(c4ccccc4F)CC3)c(=O)n2c1 | inactive | – |
| CCOC(=O)N1CCc2c(sc3c2c(=O)n(Cc2ccccc2)c(=O)n3Cc2ccccc2Cl)C1 | inconclusive [inhibitor, partial curve] | – |
| COc1ccc(CNC(=O)[C@@H](NC(=O)C2CCN(C(=O)[C@@H](N)CC(C)C)CC2)C(C)C)cc1 | inactive | – |
| CSc1nccc(NC(=O)c2ccc(C(C)(C)C)cc2)n1 | active: 9.2 µM | – |
| CCc1ccccc1NC(=O)N1CCc2c([nH]c3ccccc23)C1c1ccc(C)cc1 (stereo not given) | active: 16.4 µM | – |
| Cn1c(=O)n(CCc2ccccc2)c(=O)c2c1nc1n2CCN1Cc1ccco1 | inactive | – |
| COc1cccc(C(c2c(NC(=O)c3ccco3)sc(C)c2C)N2CCOCC2)c1 (stereo not given) | inconclusive [inhibitor, partial curve, poor fit] | – |
| CC(=O)N1CCN(c2ncnc3ccccc23)CC1 | inactive | – |
| COc1ccc(CCNC(=O)c2cnn(-c3ccc(F)cc3)c2C2CCN(C(=O)OC(C)(C)C)CC2)c(OC)c1 | inconclusive [inhibitor, single point] | – |
| CCc1ccc(OCC(=O)N(Cc2ccc(C)o2)C2CCS(=O)(=O)C2)cc1 (stereo not given) | inconclusive [inhibitor, single point] | – |
| Cc1ccc(C2(C)NC(=O)N(CC(=O)Nc3cc(S(=O)(=O)N4CCOCC4)ccc3OC(C)C)C2=O)cc1 (stereo not given) | inconclusive [inhibitor, single point] | – |
| COc1cccc(N2CCN(C(=O)CN(C)S(=O)(=O)c3ccc4c(c3)CCC(=O)N4)CC2)c1 | active: 29.1 µM | – |
| CC1CCc2c(sc(NC(=O)C3c4ccccc4Oc4ccccc43)c2C(N)=O)C1 (stereo not given) | – | inconclusive: -31.2% [inhibitor] |
| O=C(OCC(O)CN1CCCCC1)C12CC3CC(CC(C3)C1)C2 (stereo not given) | inactive | – |
| COc1cccc(-c2nc(-c3ccccc3)nc(N3CCN(C)CC3)c2C#N)c1 | inconclusive [inhibitor, single point] | – |

Reference: PubChem BioAssay AID686979 (National Center for Advancing Translational Sciences (NCATS), 2013)
